In all, about 320,000 compounds went through this assay and about 200 (0.062%) were called active. This list was built around the results that the source calls inconclusive (neither active nor inactive); the mix of calls is not that of the screen. Calls come from the whole dose curve; as a rule, active = well fitted activation curve with a large enough effect; inconclusive = small, poorly fitted or top-dose-only effect; inactive = no such curve, though single readings can be large or run the other way. No potency is given beside an inconclusive call; the fits are too rough.
Assay: qHTS assay for re-activators of p53 using a Luc reporter; note: nearly all actives have a fitted effect of over 45% in size; for activity change, positive = activation: % of control where 0% means no effect
Settings: H1299 p53-A138V BP100-luciferase reporter, luminescence, 24 h; series mostly up to 92.2 µM; activity change, positive = activation: at the top concentration
Procedure, shortened: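 p53-null H1299 cells stably carrying temperature-sensitive p53-A138V and a BP100-luciferase reporter were pinned with compounds (4-point, 1:5 series) and held 24 hrs at 37 deg C. Luminescence was read 10 min after detection reagent.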
Potency is the fitted concentration of half-maximal effect; tags give direction and shape of the fitted curve.

Row | SMILES | activity change, positive = activation | Potency
1 | CC(C)(C)c1cc(CCC(=O)N2CCC2)cc(C(C)(C)C)c1O | inactive: -2.5% | 
2 | Nc1c(-c2ccccc2)cnc2c(-c3ccccc3)cnn12 |  | inconclusive [activator, partial curve, poor fit]
3 | COC(=O)c1ccc(COn2nnc3ccccc32)cc1 |  | inconclusive [activator, full curve, poor fit]
4 | Cc1cc(NC(=O)COC(=O)c2cc([N+](=O)[O-])ccc2N2CCOCC2)ccc1Br | inactive: -5.85% | 
5 | COc1ccc(-c2cc(O)cc(O)c2)cc1 |  | inconclusive [activator, full curve, poor fit]
6 | CN1CCN(CC(=O)Nc2sc3c(c2C#N)CCC(C(C)(C)C)C3)CC1 (stereo not given) |  | inconclusive [activator, single point]
7 | COc1ccc(/C=C/C(=O)Nc2ccccc2C(=O)O)cc1 | inactive: -8.17% | 
8 | CN(C)CCNC(=O)c1coc(=O)c(Br)c1 |  | inconclusive [activator, single point]
9 | Nc1nc(-c2ccc(NC(=O)c3ccco3)cc2)cs1 | inactive: -3.05% | 
10 | CS(=O)(=O)NCc1csc(-c2ccccc2)n1 |  | inconclusive [activator, single point]
11 | CC1CCN(c2ccc(-c3ccc(NC(=O)c4ccco4)cc3)nn2)CC1 |  | inconclusive [activator, single point]
12 | O=C(COC(=O)c1ccccc1Cl)NC(=O)NCc1ccccc1 | inactive: 9.22% | 
13 | Cc1ccc(C(=O)NNC(=O)c2ccoc2C)s1 | inactive: 11.6% | 
14 | O=C(Nc1ccccc1)OCc1cc(-c2ccccc2Cl)on1 |  | inconclusive [activator, partial curve, poor fit]
15 | O=C(Nc1ccc(N2CCCCCC2)cc1)c1ccc[nH]1 |  | inconclusive [activator, full curve, poor fit]
16 | CCN(CC)c1ccc(NC(=O)c2cccc(C)c2OC)c(C)c1 |  | inconclusive [activator, single point]
17 | CCc1nc(NCc2ccc3c(c2)OCO3)c2oc3ccccc3c2n1 | inactive: 11.8% | 
18 | O=C(CCl)N1N=C(c2ccco2)CC1c1ccco1 (stereo not given) | inactive: -23.7% | 
19 | COc1cccc2sc3cc(NCCCN4CCOCC4)ccc3c(=O)c12 | inactive: 2.62% | 
20 | Cc1ccc(Sc2ccc(/C=C3/C(=O)NN(c4ccccc4)C3=O)o2)cc1 | inactive: -1.14% | 
21 | O=C(NCC(=O)N1CCCC1)c1ccccc1F |  | inconclusive [activator, partial curve, poor fit]
22 | COc1ccc(-c2[nH]nc3c2C(c2ccncc2)C(C#N)=C(N)O3)cc1 (stereo not given) |  | inconclusive [activator, partial curve, poor fit]
23 | CCN(CC)CCSc1nc(O)c(-c2ccccc2)c(=O)[nH]1 |  | inconclusive [activator, partial curve, poor fit]

Row | SMILES | activity change, positive = activation | Potency
24 | Cc1cccc(NC2SC(=O)N(c3ccccc3)C2=O)c1 (stereo not given) |  | inconclusive [activator, partial curve, poor fit]
25 | COc1ccccc1NC(=O)CSc1nnc(-c2ccoc2C)o1 |  | inconclusive [activator, full curve, poor fit]
26 | O=C(O)c1ccccc1C(=O)c1ccc(-c2ccccc2)cc1 |  | inconclusive [activator, partial curve, poor fit]
27 | COc1ccc(NC(=S)NC(=O)c2ccc3c(c2)OCCO3)cc1 |  | inconclusive [activator, full curve, poor fit]
28 | CCc1ccc(NC(=O)C(C)OC(=O)CC(NC(C)=O)c2ccccc2)cc1 (stereo not given) |  | inconclusive [activator, single point]
29 | CC(=O)c1cccc(NC(=S)NC(=O)c2cccc(C)c2)c1 |  | inconclusive [activator, partial curve, poor fit]
30 | O=C(N/N=C1\CCc2ccccc21)c1ccncc1 |  | inconclusive [activator, partial curve, poor fit]
31 | CC(C)N1CCC(=NNC(=O)c2cccs2)CC1 |  | inconclusive [activator, partial curve, poor fit]
32 | COc1ccc([N+](=O)[O-])cc1NC(=O)COC(=O)C1CC1 | inactive: -0.821% | 
33 | Cc1nn2c(=O)cc(COC(=O)c3c(F)cccc3Cl)nc2s1 |  | inconclusive [activator, partial curve, poor fit]
34 | CCC(=O)NCCc1cc2ccc(C)cc2[nH]c1=O | inactive: -3.32% | 
35 | Cc1ccc(/C=C2/SC(=S)N(CCC(=O)NCCCN3CCOCC3)C2=O)cc1 |  | inconclusive [activator, single point]
36 | CCCn1ncc(CN2CCC(n3nccc3NC(=O)c3ccccc3Cl)CC2)c1C |  | inconclusive [activator, single point]
37 | Cc1cc2cc(CNC(=O)Nc3ccccc3)ccc2n1C |  | inconclusive [activator, partial curve, poor fit]
38 | O=C(CCN1C(=O)/C(=C/c2ccccc2F)SC1=S)NCCc1ccc(O)cc1 |  | inconclusive [activator, partial curve, poor fit]
39 | COc1cc(C2CC(=O)Oc3c2c(=O)n(C)c2ccccc32)cc(OC)c1OC (stereo not given) | inactive: 2.36% | 
40 | COC(=O)c1ccc(-c2nc3ccccc3[nH]2)cc1 |  | inconclusive [activator, full curve, poor fit]
41 | COc1cc2c(cc1NC(=O)COC(=O)/C=C/c1ccccc1)oc1ccccc12 |  | inconclusive [activator, single point]
42 | CC(=O)c1ccc(/C=C/c2nc3ccccc3n2C)o1 | inactive: 8.45% | 
43 | N#CCSc1ccsc1C(=O)Nc1ccc(F)cc1 |  | inconclusive [activator, single point]
44 | O=C(Nc1ccc(C(=O)N2CCCCC2)cc1)Nc1cccc(Cl)c1 |  | inconclusive [activator, single point]
45 | O=C(CCc1ccccc1)Nc1ccc2ccccc2n1 |  | inconclusive [activator, full curve, poor fit]

From PubChem BioAssay AID504706 (National Center for Advancing Translational Sciences (NCATS), 2011)
